Laboratory results from PubChem BioAssay AID485364 (National Center for Advancing Translational Sciences (NCATS), 2010).
In all, about 360,000 compounds went through this assay and about 11,000 (3.1%) were called active. This list was built around the results that the source calls inconclusive (neither active nor inactive); the mix of calls is not that of the screen. Calls follow the shape of the dose curve; as a rule, active = well fitted inhibition curve with a large enough effect; inconclusive = small, poorly fitted or top-dose-only effect; inactive = no such curve, though single readings can be large or run the other way. No potency is given beside an inconclusive call; the fits are too rough.

Molecular target: Schistosoma mansoni thioredoxin glutathione reductase (TGR) (UniProt Q962Y6)
Experiment: qHTS Assay for the Inhibitors of Schistosoma Mansoni Peroxiredoxins; also: nearly all actives have a fitted effect of over 60% in size
Settings: purified TGR, DTNB reduction, TNB absorbance 405 nm; series mostly up to 114 µM
Source text: Schistosomiasis is a major neglected tropical disease that currently affects over 200 million. It is caused by different species of flatworms, such as Schistosoma mansoni. Over the last century, drugs to treat the disease have evolved from potassium antimonyl tartrate, artemisinin, oxamniquine, to praziquantel, with praziquantel remaining the universally-used single drug of choice over the past three decades. However, transmission rates have changed little with praziquantel, and there is evidence for the development of drug resistant parasites. Because there is currently no suitable alternative therapy available, there is an urgent need to identify new targets and drugs for schistosomiasis treatment. Thioredoxin glutathione reductase (TGR), one uniquely positioned S. mansoni enzyme, has been identified as a major component of the worms' distinct and compressed antioxidant "firewall". TGR is a multifunctional enzyme that catalyzes the interconversion between reduced and oxidized forms of both glutathione (GSH) and thioredoxins, thus making it an attractive new antiparasitic target. Recently, a quantitative high-throughput screen of the NIH Molecular Libraries Small Molecule Repository (MLSMR, ~71K at the time of the screen in 2007) was performed using an assay that targeted both TGR and peroxiredoxin2 (Prx2, an H2O2-reducing enzymatic component of the S. mansoni redox "firewall") by following the decrease of NADPH fluorescence. […] Additional mechanistic link between exogenous NO donation and parasitic injury for the oxadiazole-2-oxide class of compounds was also expanded and better defined. Although the screen addressed both TGR and Prx2, the assay required post-screen target deconvolution for further characterization of the actives. In addition, the fluorescence assay was also subject to fluorescence interference from compound library members. We have developed a 1536-well-based kinetic HTS assay to address TGR alone. The assay followed the reduction of 5, 5'-dithiobis (2-nitrobenzoic acid) (DTNB) (Ellman's reagent) by NADPH and measured the increase in absorbance at 412 nm of the reaction product, TNB. […] This assay format can be used to screen the current MLSMR collection (with >300K compounds available) to find novel TGR inhibitors. Furoxan is a good choice to serve as a positive control in the primary HTS assay.
Three microliters of reagents (100 uM NADPH and 20 nM TGR or 100 uM NADPH as no-enzyme control) were dispensed into 1,536-well black clear-bottomed plates. Compounds (23 nL) were transferred via Kalypsys pin tool equipped with 1536-pin array (10 nL slotted pins, V&P Scientific, San Diego, CA). The plates were then be incubated for 15 min at room temperature, and 1 uL aliquot of 500 uM NADPH were added, immediately followed by a 1 uL aliquot of 15 mM DTNB to start the reaction. The plate was transferred to a ViewLux high-throughput CCD imager (Perkin-Elmer, Wellesley, MA) where kinetic measurements of the TNB absorbance were acquired using a 405 excitation filter. Throughout the screen, reagent bottles and all liquid lines were made light-tight to minimize reagent degradation. All screening operations were performed on a fully integrated robotic system (Kalypsys, San Diego, CA) containing one RX-130 and two RX-90 anthropomorphic robotic arms (Staubli, Duncan, SC). Library plates were screened starting from the lowest and proceeding to the highest concentration, and a "double-dipping" step of the highest concentration was required to access higher concentrations of compounds. Vehicle-only plates, with DMSO being pin-transferred to the entire column 5-48 compound area, were inserted uniformly at the beginning and the end of each library in order to monitor for and record any shifts in the background, which can be affected by reagent dispensers or loss in enzyme activity overtime. […]
Potency is read from the fitted curve at half-maximal effect; tags tell the direction and shape of the fitted curve.

SMILES	Potency
Cc1ccc(S(=O)(=O)Oc2ccc(/C=C3\C(=N)N4N=C(S(C)(=O)=O)SC4=NC3=O)cc2)cc1	inconclusive [inhibitor, partial curve]
CS(=O)(=O)C1=NSC2=NC(=O)/C(=C\c3ccc(OC(=O)c4ccco4)c(Br)c3)C(=N)N21	inconclusive [inhibitor, partial curve]
COc1cccc(C2C3=C(N=c4s/c(=C\c5ccc(OCC(=O)O)cc5)c(=O)n42)c2ccccc2CC3)c1 (stereo unspecified)	inconclusive [inhibitor, partial curve]
CCS(=O)(=O)C1=NN2C(=N)/C(=C\c3ccc(OS(=O)(=O)c4ccccc4)c(OC)c3)C(=O)N=C2S1	inconclusive [inhibitor, partial curve]
CCOC(=O)c1sc(N2C(=O)C(O)=C(C(=O)c3ccc(C)o3)C2c2cccc([N+](=O)[O-])c2)nc1C (stereo unspecified)	inconclusive [inhibitor, partial curve]
O=C(COc1ccc(Cl)cc1)Nc1cc(NC(=O)COc2ccc(Cl)cc2)cc(C(=O)O)c1	inconclusive [inhibitor, full curve, poor fit]
